Assay results taken from patent US20190218277A1 (Chugai, published 2019).

Key:
[1] = target: T1, Recombinant soluble E protein (0.8E-His) from DENV-3 (DENV-3)
T1 construct: also called DENV-3 E protein; DV3

[2] = target: T1, Recombinant soluble E protein …; remark: listed apart in the source
[3] = target: T2, Recombinant soluble E protein (0.8E-His) from DENV-2 (DENV-2)
T2 construct: also called DENV-2 E protein; DV2

[4] = target: T3, Recombinant soluble E protein (0.8E-His) from DENV-4 (DENV-4)
T3 construct: also called DENV-4 E protein; DV4

[5] = target: T1, Recombinant soluble E protein …; remark: listed apart in the source
[6] = target: T1, Recombinant soluble E protein …; remark: listed apart in the source

| Binder | Kd [1] | Kd [2] | Kd [3] | Kd [4] | Kd [5] | Kd [6] |
| --- | --- | --- | --- | --- | --- | --- |
| DG_3CH953-SG182/3CL-SK1 (antibody, human IgG1, kappa) heavy: QVQLVQSGPDVEKPGASVKVSCKASGYTFTSNYIHWVRQAPGQGLEWMGVINPRGGSRRSAQKFQGRITMTRDTSTSTVYMELSSLRSEDTAVYYCARGGRALFYDSYTTPFDGGSWWFDPWGQGSLVTVSSASTKGPSVFPLAPSSKSTSGGTAALGCLVKDYFPEPVTVSWNSGALTSGVHTFPAVLQSSGLYSLSSVVTVPSSSLGTQTYICNVNHKPSNTKVDKRV[human IgG1 Fc omitted here] light: DIQLTQSPSSLSASVGDRVTFTCQASQDIRKYLNWYQQKPGKAPKLLIYDASNLKTGVPSRFSGSGSGTDFTFTISSLQPEDVATYYCQQFDDLPITFGQGTRLQIKRTVAAPSVFIFPPSDEQLKSGTASVVCLLNNFYPREAKVQWKVDNALQSGNSQESVTEQDSKDSTYSLSSTLTLSKADYEKHKVYACEVTHQGLSSPVTKSFNRGEC | 0.000985 nM | 0.136 nM | 0.776 nM | 6.2 nM | – | – |
| DG_3CH1000-SG182/3CL-SK1 (antibody, human IgG1, kappa) heavy: QVQLVQSGPDVEKPGASVKVSCKASGYTFTSYYMHWVRQAPGQGLEWMGVINPRGGSRRSAQKFQGRITMTRDTSTSTVYMELSSLRSEDTAVYYCARGGRALFYDSYTTPFDGGSWWFDPWGQGSLVTVSSASTKGPSVFPLAPSSKSTSGGTAALGCLVKDYFPEPVTVSWNSGALTSGVHTFPAVLQSSGLYSLSSVVTVPSSSLGTQTYICNVNHKPSNTKVDKRV[human IgG1 Fc omitted here] light: DIQLTQSPSSLSASVGDRVTFTCQASQDIRKYLNWYQQKPGKAPKLLIYDASNLKTGVPSRFSGSGSGTDFTFTISSLQPEDVATYYCQQFDDLPITFGQGTRLQIKRTVAAPSVFIFPPSDEQLKSGTASVVCLLNNFYPREAKVQWKVDNALQSGNSQESVTEQDSKDSTYSLSSTLTLSKADYEKHKVYACEVTHQGLSSPVTKSFNRGEC | 0.00349 nM | – | – | – | – | – |
| DG_3CH1047-SG182/3CL-SK1 (antibody, human IgG1, kappa, also called 3Cam2) heavy: QVQLVQSGPDVEKPGASVKVSCKASGYTFTSYYMHWVRQAPGQGLEWMGVINPRGGSRRSAQKFQGRITMTRDTSTSTVYMELSSLRSEDTAVYYCARGGEALFYDSYTTPFDGGSWWFDPWGQGSLVTVSSASTKGPSVFPLAPSSKSTSGGTAALGCLVKDYFPEPVTVSWNSGALTSGVHTFPAVLQSSGLYSLSSVVTVPSSSLGTQTYICNVNHKPSNTKVDKRV[human IgG1 Fc omitted here] light: DIQLTQSPSSLSASVGDRVTFTCQASQDIRKYLNWYQQKPGKAPKLLIYDASNLKTGVPSRFSGSGSGTDFTFTISSLQPEDVATYYCQQFDDLPITFGQGTRLQIKRTVAAPSVFIFPPSDEQLKSGTASVVCLLNNFYPREAKVQWKVDNALQSGNSQESVTEQDSKDSTYSLSSTLTLSKADYEKHKVYACEVTHQGLSSPVTKSFNRGEC | – | – | 0.843 nM | 5.61 nM | < 0.1 nM | < 0.1 nM |

Where two headings read alike, the source gives them in different places.
